PMC4336329 (PLoS ONE, 2015)
Among all 310,000 compounds or so, about 2,200 (0.71%) showed an effect of 50% or more. Effects have a minus sign here. Some of the results follow.

molecular target: human ether-à-go-go-related gene (hERG) potassium channel (human, UniProt Q12809); assay: primary screen, population patch clamp on CHO cells stably expressing hERG
Sequence (Q12809 whole entry, looked up): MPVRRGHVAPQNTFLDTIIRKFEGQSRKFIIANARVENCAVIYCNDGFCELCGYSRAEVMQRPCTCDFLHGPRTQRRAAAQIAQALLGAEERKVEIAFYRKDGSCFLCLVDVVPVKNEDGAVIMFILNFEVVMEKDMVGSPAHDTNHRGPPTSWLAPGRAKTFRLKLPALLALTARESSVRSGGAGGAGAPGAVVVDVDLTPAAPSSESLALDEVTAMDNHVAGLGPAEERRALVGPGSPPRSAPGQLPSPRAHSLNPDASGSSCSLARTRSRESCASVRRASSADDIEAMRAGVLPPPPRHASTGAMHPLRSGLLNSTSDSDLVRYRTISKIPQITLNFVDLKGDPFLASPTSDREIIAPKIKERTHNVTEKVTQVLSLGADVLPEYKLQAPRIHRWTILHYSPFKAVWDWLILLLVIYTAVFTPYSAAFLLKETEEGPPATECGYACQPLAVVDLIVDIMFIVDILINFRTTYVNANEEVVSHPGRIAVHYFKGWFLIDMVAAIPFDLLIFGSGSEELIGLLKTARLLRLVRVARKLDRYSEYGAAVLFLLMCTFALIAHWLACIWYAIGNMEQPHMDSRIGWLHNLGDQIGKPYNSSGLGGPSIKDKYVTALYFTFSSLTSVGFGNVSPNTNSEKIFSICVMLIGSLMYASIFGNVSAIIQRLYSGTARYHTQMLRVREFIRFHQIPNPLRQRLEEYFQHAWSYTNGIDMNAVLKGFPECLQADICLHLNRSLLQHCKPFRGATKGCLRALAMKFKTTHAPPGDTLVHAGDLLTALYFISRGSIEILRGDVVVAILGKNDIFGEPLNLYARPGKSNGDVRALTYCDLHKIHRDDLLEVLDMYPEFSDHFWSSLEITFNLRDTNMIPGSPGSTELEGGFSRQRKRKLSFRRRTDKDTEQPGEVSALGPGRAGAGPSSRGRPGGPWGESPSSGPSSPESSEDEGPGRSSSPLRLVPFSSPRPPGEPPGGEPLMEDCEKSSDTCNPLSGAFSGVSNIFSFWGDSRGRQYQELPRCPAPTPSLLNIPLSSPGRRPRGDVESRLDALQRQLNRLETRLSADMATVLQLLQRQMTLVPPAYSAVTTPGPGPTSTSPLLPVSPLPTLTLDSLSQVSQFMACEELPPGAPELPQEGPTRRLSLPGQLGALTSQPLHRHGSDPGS

Row | Structure (SMILES) | hERG current change (%, negative = inhibition) at 1uM
1 | Cc1cc(/C=N/n2c(COc3ccccc3)nc3ccccc3c2=O)c(O)c([N+](=O)[O-])c1 | 0.106%
2 | CN(C)c1ccc(-n2cc3c(=O)n(C)c(=O)n(C)c3c2)cc1 | 7.08%
3 | O=C(COC(=O)c1cccc(S(=O)(=O)NCc2ccccc2)c1)NCC1CCCO1 (centres unmarked) | 6.21%
4 | O=C(O)COc1ccccc1C1C2C(=O)N(c3ccc(F)cc3)C(=O)C2ON1c1ccccc1 (centres unmarked) | -5.85%
5 | O=C(NCCc1cn2ccccc2n1)c1ccc(Br)o1 | -15%
6 | COc1cc(C)nc(Oc2ccc(=O)[nH]n2)n1 | 7.36%
7 | CCC(=O)N/C=C/n1cnc2cc(C(F)(F)F)ccc21 | 2.72%
8 | COc1cc(C(=O)N2CCN(CC(O)COc3ccccc3)CC2)cc(OC)c1OC (centres unmarked) | 11.8%
9 | O=C(NNC(=S)NC1CCCCC1)c1cccc(S(=O)(=O)Nc2ccccc2Cl)c1 | 12.3%
10 | c1ccc(CCNc2ncnc3c2cnn3-c2ccccc2)cc1 | -9.08%
11 | CCn1c(O)c(C=NCCc2c[nH]c3ccccc23)c(=O)[nH]c1=O | 22.9%
12 | Cc1noc(/C=C/N(C)C)c1S(=O)(=O)N1CCCC(C(=O)NCc2ccc(Cl)cc2)C1 (centres unmarked) | 9.92%
13 | O=C1C2C3C=CC(C3)C2C(=O)N1c1ccc(-c2nc3ccccc3c(=O)o2)cc1 (centres unmarked) | 1.72%
14 | CCCNC(=O)c1ccc2c(c1)nc(C)n2-c1cccc(C)c1 | 13.2%
15 | O=C(CCC(=O)OCC(=O)c1ccc([N+](=O)[O-])cc1)NC1CCCCC1 | 10.2%
16 | COc1ccc(C(C(N)=O)c2ncc(C(F)(F)F)cc2Cl)cc1 (centres unmarked) | 5.25%
17 | O=C(OCC(=O)N1CCN(c2cccc(Cl)c2)CC1)c1ccco1 | 11.4%
18 | O=C(COC(=O)c1ccc(Br)o1)NCCc1ccccc1 | 9.51%
19 | Cc1nc(N2CCOCC2)[nH]c(=O)c1C | 13.9%
20 | CSc1ccc(CN(C)CC(=O)NC(=O)NCCC2=CCCCC2)cc1 | -1.53%
21 | COC(=O)c1cc(-c2ccc(S(=O)(=O)N3CCCC(C)C3)cc2)c(C(F)(F)F)s1 (centres unmarked) | 6.46%
22 | Cc1cc(Br)ccc1OCc1nc(-c2cccnc2)no1 | 11.8%

Row | Structure (SMILES) | hERG current change (%, negative = inhibition) at 1uM
23 | CCN(CC)C(=O)c1ccc2nc(-c3ccccc3)c(-c3ccccc3)nc2c1 | 7.94%
24 | COc1cc(/C=C/C(=O)N(C)CC(=O)Nc2ccccc2Br)cc2c1OCCO2 | 4.04%
25 | CC1CCc2c(sc(NC(=O)/C=C/c3cccs3)c2C(=O)O)C1 (centres unmarked) | 16.7%
26 | COc1cc2nc(N(CCN(C)C)C(=O)c3ccc4ccccc4c3)sc2cc1OC.Cl | -1.65%
27 | O=C(c1cc(-c2cccc(Cl)c2)on1)N1CCc2ccccc2C1 | 11.8%
28 | CCOP(=O)(OCC)C(Nc1ccc([N+](=O)[O-])cc1)c1ccc(Cl)cc1 (centres unmarked) | -48.7%
29 | O=C(COc1ccc2ccc(=O)oc2c1)N1CCN(c2ccc(F)cc2)CC1 | 1.02%
30 | Cc1cc(SCC(=O)N/N=C/c2ccc(O)cc2O)nc2ccccc12 | 12.7%
31 | O=C(NNC1CC(=O)N(c2ccccc2)C1=O)c1ccco1 (centres unmarked) | 7.73%
32 | Cc1ccc(S(=O)(=O)N=C2SCCCS2)cc1 | 4.6%
33 | O=C1/C(=C/c2ccccc2)SC(=S)N1CCCC(=O)N1CCCCC1CCO (centres unmarked) | 8.82%
34 | Cc1ccc(C)c(NC(=S)N(Cc2cccc(Br)c2)CC2CCC(C(=O)O)CC2)c1 (centres unmarked) | 6.31%
35 | COc1cc(/C=C/C(=O)OCC(=O)N2c3ccccc3CC2C)cc(OC)c1OC (centres unmarked) | 10.1%
36 | O=C(CCCCCn1c(=S)[nH]c2ccc(N3CCOCC3)cc2c1=O)NCc1ccccc1 | 8.2%
37 | CCC(C(=O)OCC(=O)Nc1cccc(C(C)=O)c1)c1ccccc1 (centres unmarked) | 18%
38 | CC(C)Nc1ccc(C(CC(N)=O)NC(=O)Cc2cccc3ccccc23)cc1[N+](=O)[O-] (centres unmarked) | -1.01%
39 | CCN(CCO)Cc1csc2cccc(Br)c12.Cl | 0.578%
40 | Cc1cccc(C)c1NC(=O)CS(=O)CC(=O)Nc1ccc(N2CCOCC2)cc1 (centres unmarked) | -1.58%
41 | CC1=C(C(=O)Nc2cccnc2)C(c2ccc3c(c2)OCO3)C2=C(CCCC2=O)N1 (centres unmarked) | 18%
42 | CCc1ccc(NC(=O)Cn2c(=O)c3cccn3c3ccccc32)cc1 | 17.2%
43 | CCOC(=O)Cn1c(=O)c2c(nc3n2CCCN3CCc2ccccc2)n(C)c1=O | -6.03%
44 | O=c1[nH]cnc2c1nnn2Cc1ccccc1 | 11.7%
